{"source": "PubChem BioAssay AID485294", "about": "(National Center for Advancing Translational Sciences (NCATS), 2010)", "note": "About 150 (0.041%) of roughly 370,000 compounds were called active. Inconclusive results, whose numbers are uncertain, are shown with a selection of clear calls. The call rests on the fitted dose curve; in most records, active means well fitted inhibition curve with a large enough effect; inconclusive means small, poorly fitted or top-dose-only effect; inactive means flat fitted curve, though single readings scatter. Potencies of inconclusive entries are left out as doubtful fits. Potency means the concentration at half of the fitted maximal effect; tags describe the fitted curve by direction and shape.", "data": [{"target": "Beta-lactamase (Escherichia coli (strain K12)) (UniProt P00811)", "sequence (P00811 whole entry, looked up)": "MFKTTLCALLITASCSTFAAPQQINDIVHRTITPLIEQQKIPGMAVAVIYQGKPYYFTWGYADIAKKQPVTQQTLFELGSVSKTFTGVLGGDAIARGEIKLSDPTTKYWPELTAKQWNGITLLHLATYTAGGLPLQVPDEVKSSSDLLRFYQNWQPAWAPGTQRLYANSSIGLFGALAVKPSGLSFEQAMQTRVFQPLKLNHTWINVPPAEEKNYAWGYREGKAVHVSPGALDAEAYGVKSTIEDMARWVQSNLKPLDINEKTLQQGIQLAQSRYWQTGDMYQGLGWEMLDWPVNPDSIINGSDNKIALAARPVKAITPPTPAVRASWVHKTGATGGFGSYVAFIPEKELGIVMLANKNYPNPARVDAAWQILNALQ", "assay": "qHTS Inhibitors of AmpC Beta-Lactamase (assay with detergent); further: nearly all actives have a fitted effect of over 25% in size", "details": "AmpC hydrolysis of nitrocefin, absorbance 480 nm, 0.01% Triton; series mostly up to 114 µM", "summary_of_the_method": "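AmpC (5.3 nM in the dispensed reagent) in 20 mM phosphate pH 7.0 with 0.01% (detergent screen) or 0.0001% Triton X-100 was preincubated with compounds for 15 min at room temperature. Nitrocefin was then added from an 800 uM solution, and hydrolysis was followed at 480 nm.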", "values": [{"smiles": "Cc1cccc(N2CCN(C(=O)c3cccs3)CC2)c1C", "Potency": "inconclusive [inhibitor, partial curve]"}, {"smiles": "CCC(C)(C)NC(=O)CSc1nc(Cc2ccccc2)nc2ccccc12", "Potency": "inactive"}, {"smiles": "CC1(C)CSC(=S)N1S(=O)(=O)c1ccccc1", "Potency": "inconclusive [inhibitor, full curve, poor fit]"}, {"smiles": "Cn1nc(-c2ccccn2)nc2c(=O)n(C)c(=O)nc1-2", "Potency": "inactive"}, {"smiles": "Cc1c(NC(=S)NC(=O)CSc2ccc(Cl)cc2)cccc1C(=O)O", "Potency": "inconclusive [inhibitor, partial curve, poor fit]"}, {"smiles": "COc1nc2ccccc2nc1CCC(=O)O", "Potency": "inactive"}, {"smiles": "Cc1cccc(NC(=O)CN2CCN(CC(=O)Nc3cccc(C)c3)CC2)c1", "Potency": "inconclusive [inhibitor, partial curve, poor fit]"}, {"smiles": "CC(C)(C)C(=O)[C@@H]1[C@@H]2C(=O)N(C3CCCCC3)C(=O)[C@@H]2[C@H]2c3ccccc3C=CN12", "Potency": "inconclusive [inhibitor, full curve, poor fit]"}, {"smiles": "O=C(COc1ccc(Cl)cc1)N1CCN(Cc2ccc3c(c2)OCO3)CC1", "Potency": "inconclusive [inhibitor, full curve]"}, {"smiles": "Cc1sc2nc(SCC(=O)NCc3ccco3)n(-c3ccccc3)c(=O)c2c1C", "Potency": "inconclusive [inhibitor, full curve, poor fit]"}, {"smiles": "Cc1cc(=O)oc2c(CN3CCCCC3)c(O)c(Cl)cc12", "Potency": "inconclusive [inhibitor, full curve, poor fit]"}, {"smiles": "CCCCn1c(=N)c(S(=O)(=O)c2ccc(C)cc2)cc2c(=O)n3cc(C)ccc3nc21", "Potency": "inactive"}, {"smiles": "Cc1ccc(C)c(SCC(=O)OCC(=O)N2CC(C)OC(C)C2)c1", "note": "(stereo unspecified)", "Potency": "inconclusive [inhibitor, full curve, poor fit]"}, {"smiles": "COc1ccc(NS(=O)(=O)c2cccc(C(=O)N3CCC3)c2)cc1", "Potency": "inconclusive [inhibitor, full curve, poor fit]"}, {"smiles": "COc1ccc(C(=O)c2sc(Nc3ccccc3)nc2C)cc1", "Potency": "inactive"}, {"smiles": "CC1(NC(=O)CC[N+](C)(C)CCO)CS(=O)(=O)CC1S(=O)(=O)[O-]", "note": "(stereo unspecified)", "Potency": "inactive"}, {"smiles": "COc1ccc(NC(=S)Nc2cc(-c3ccccc3)[nH]n2)cc1Cl", "Potency": "inactive"}, {"smiles": "C=CCNC(=S)NNC(=O)c1cc(-c2cccnc2)nc2ccccc12", "Potency": "inconclusive [inhibitor, partial curve, poor fit]"}, {"smiles": "CCOC(=O)c1oc2nc3c(cc2c1N)COC(C)(C)C3", "Potency": "inactive"}, {"smiles": "Cc1ccc(-c2nnc(Nc3ccc(OC(F)(F)Cl)cc3)c3ccccc23)cc1S(=O)(=O)NC(C)(C)CO", "Potency": "inactive"}, {"smiles": "COc1cc(C)ccc1OCCOCCOc1ccccc1[N+](=O)[O-]", "Potency": "inactive"}, {"smiles": "NS(=O)(=O)c1ccc(CCNC(=S)Nc2ccccc2)cc1", "Potency": "inconclusive [inhibitor, full curve, poor fit]"}, {"smiles": "CC1(c2ccc3ccccc3c2)NC(=O)N(CC(=O)O)C1=O", "note": "(stereo unspecified)", "Potency": "inconclusive [inhibitor, full curve, poor fit]"}, {"smiles": "Cc1ccccc1NS(=O)(=O)c1c(C(=O)N2CCCCCC2)c(C)n(C)c1C", "Potency": "inconclusive [inhibitor, partial curve, poor fit]"}, {"smiles": "Cc1ccc(S(=O)(=O)/N=C2/NC(=O)/C(=C/c3cccnc3)S2)cc1", "Potency": "inconclusive [inhibitor, full curve]"}, {"smiles": "NC(=O)N[C@@H](Cc1c[nH]c2ccccc12)C(=O)OCC(=O)N1CCCCC1", "Potency": "inconclusive [inhibitor, full curve, poor fit]"}, {"smiles": "Cc1ccc(S(=O)(=O)N(C)CC(O)Cn2c3ccccc3c3ccccc32)cc1", "note": "(stereo unspecified)", "Potency": "inactive"}, {"smiles": "CC1Cc2cc(-c3csc(NC(=O)Cc4cccs4)n3)ccc2N1S(C)(=O)=O", "note": "(stereo unspecified)", "Potency": "inactive"}, {"smiles": "FC(F)(F)c1cc(-c2cccs2)nc2nc(N3CCOCC3)sc12", "Potency": "inconclusive [inhibitor, full curve, poor fit]"}, {"smiles": "Cc1ccc(C(C)NC(=S)NCc2ccc(F)cc2)cc1C", "note": "(stereo unspecified)", "Potency": "inconclusive [inhibitor, full curve]"}, {"smiles": "O=C(O)c1ccc(N2CCCCC2)cc1O", "Potency": "inactive"}, {"smiles": "CN1C(=O)C(CC(=O)Nc2ccc(F)cc2)N(Cc2cccs2)C1=S", "note": "(stereo unspecified)", "Potency": "inactive"}, {"smiles": "COc1ccc(NC(=O)CN(c2cc(C)cc(C)c2)S(=O)(=O)c2c(C)n[nH]c2C)cc1", "Potency": "inconclusive [inhibitor, partial curve]"}, {"smiles": "COc1ccccc1OCCNC(=O)c1cccs1", "Potency": "inconclusive [inhibitor, full curve, poor fit]"}, {"smiles": "Cc1csc(NC(=O)CCn2c(=O)sc3ccccc32)n1", "Potency": "inconclusive [inhibitor, full curve]"}, {"smiles": "O=C(CCc1ccccc1)N=C1SC2CS(=O)(=O)CC2N1c1ccccc1F", "note": "(stereo unspecified)", "Potency": "inactive"}, {"smiles": "CC(=O)c1c(C)[nH]c(C(=O)COc2ccc(C#N)cc2)c1C", "Potency": "inactive"}, {"smiles": "CCOc1ccc(S(=O)(=O)NCCC(=O)NCC(c2ccc(OC)cc2)N2CCCCC2)cc1", "note": "(stereo unspecified)", "Potency": "inconclusive [inhibitor, full curve, poor fit]"}, {"smiles": "CCOc1ccc(NC(=O)CN(C)C(=O)/C=C/c2ccco2)cc1OCC", "Potency": "inactive"}, {"smiles": "Cn1c(-c2ccccc2)c(/C=N/NC(=O)c2cccnc2)c2ccccc21", "Potency": "inconclusive [inhibitor, single point]"}, {"smiles": "O=C(NNc1cccc(Cl)n1)Nc1cccc(Cl)c1", "Potency": "inconclusive [inhibitor, single point]"}, {"smiles": "Cc1cccc(-n2c(CNC(=O)c3ccccc3)nnc2SCC(=O)Nc2nccs2)c1", "Potency": "inconclusive [inhibitor, full curve, poor fit]"}, {"smiles": "O=C(Nc1cccnc1Cl)c1cc2c(s1)-c1ccccc1OC2", "Potency": "inactive"}, {"smiles": "CC(=O)NC(Cc1ccccc1)C(=O)N1CCN(C(=O)c2cccs2)CC1", "note": "(stereo unspecified)", "Potency": "inconclusive [inhibitor, full curve]"}, {"smiles": "S=C1Cc2ccccc2N1", "Potency": "inactive"}, {"smiles": "CN(C)c1ncnc2sc(-c3ccccc3)cc12", "Potency": "inconclusive [inhibitor, partial curve]"}, {"smiles": "CCOc1c2ccccc2nn1CCO", "Potency": "inconclusive [inhibitor, full curve]"}, {"smiles": "Cc1ccc(C)c(N(CC(=O)NCc2ccc3c(c2)OCO3)C(=O)CCC(=O)Nc2ccccn2)c1", "Potency": "inconclusive [inhibitor, partial curve]"}, {"smiles": "CCOC(=O)C1CCN(C(c2cccc(F)c2)c2sc3nc(C)nn3c2O)CC1", "note": "(stereo unspecified)", "Potency": "inactive"}, {"smiles": "CCCCCCCCC(=O)NCc1ccc(O)c(OC)c1", "Potency": "inactive"}, {"smiles": "S=c1nc(COc2ccccc2)[nH]c2ccccc12", "Potency": "inactive"}, {"smiles": "O=C(NC1CCCCC1)C1COc2ccccc2O1", "note": "(stereo unspecified)", "Potency": "inconclusive [inhibitor, full curve]"}, {"smiles": "Cn1c(=O)c2c(ncn2CC(=O)OCC(=O)NC2CCCc3ccccc32)n(C)c1=O", "note": "(stereo unspecified)", "Potency": "inconclusive [inhibitor, partial curve]"}, {"smiles": "CC(=O)c1sc(NC(=O)CCS(=O)(=O)c2ccc(C)cc2)nc1C", "Potency": "inconclusive [inhibitor, full curve, poor fit]"}, {"smiles": "Cc1c(C(=O)OCC(=O)N2CCC(C)CC2)oc2ccccc12", "Potency": "inconclusive [inhibitor, full curve]"}, {"smiles": "CC(C)(C)SCCNC(=O)CN(c1ccc(F)c(Cl)c1)S(C)(=O)=O", "Potency": "inconclusive [inhibitor, full curve, poor fit]"}, {"smiles": "CC1=CC(=Nc2c(C)n(C)n(-c3ccccc3)c2=O)C=C(C)C1=O", "Potency": "inactive"}, {"smiles": "CCOc1ccccc1C(=O)NCC(=O)NNC(=O)c1cccc(S(=O)(=O)Nc2ccc(OC)cc2)c1", "Potency": "inconclusive [inhibitor, partial curve, poor fit]"}, {"smiles": "CN(NS(=O)(=O)c1ccc(Br)cc1)c1nc(C(F)(F)F)nc2ccccc12", "Potency": "inactive"}, {"smiles": "Cc1ccc(C(=O)NCC(=O)Nc2ccc3c(c2)CCC3)cc1C", "Potency": "inconclusive [inhibitor, partial curve, poor fit]"}, {"smiles": "COc1ccc(CNC(=O)CCC(=O)Nc2cccnc2)cc1", "Potency": "inconclusive [inhibitor, full curve, poor fit]"}, {"smiles": "Cc1ccc(-c2nsc(SCC(=O)NCc3ccc4c(c3)OCO4)n2)cc1", "Potency": "inconclusive [inhibitor, partial curve, poor fit]"}, {"smiles": "O=[N+]([O-])c1ccc(O)c(C=Nc2ccc3nc(-c4ccccc4)[nH]c3c2)c1", "Potency": "inactive"}, {"smiles": "CC(/C=N/n1cnnc1)=C\\c1ccco1", "Potency": "inconclusive [inhibitor, partial curve, poor fit]"}, {"smiles": "COc1ccc(N=Cc2sc3ccccc3c2Cl)cc1", "Potency": "inactive"}, {"smiles": "c1csc(Cc2nn3c(-c4ccncc4)nnc3s2)c1", "Potency": "inconclusive [inhibitor, partial curve, poor fit]"}, {"smiles": "CCOC(=O)C1(CCOC)CCN(Cc2cccc(OCc3ccccc3)c2)CC1", "Potency": "inconclusive [inhibitor, full curve, poor fit]"}, {"smiles": "N#Cc1ccc(S(=O)(=O)N2CCC(Oc3cccc(C(F)(F)F)c3)CC2)cc1", "Potency": "inactive"}, {"smiles": "CCCCC[C@H](O)/C=C/[C@@H]1[C@@H](C/C=C\\CCCC(=O)OC)[C@@H](O)C[C@H]1O", "Potency": "inconclusive [inhibitor, full curve, poor fit]"}, {"smiles": "O=C(C1CCN(S(=O)(=O)c2ccc3c(c2)OCCO3)CC1)N1CCc2ccccc21", "Potency": "inconclusive [inhibitor, full curve, poor fit]"}, {"smiles": "Cc1cc(C)n(-c2nc(N(C)C)nc(N3CCOCC3)n2)n1", "Potency": "inactive"}]}]}
